These results are taken from PMC4336329 (PLoS ONE, 2015).

The campaign covered roughly 310,000 compounds. About 2,200 (0.71%) showed an effect of 50% or more. Effects have a minus sign here. This is one part of the list.

In the assay the target is human ether-à-go-go-related gene (hERG) potassium channel (human, UniProt Q12809). Put plainly: primary screen, population patch clamp on CHO cells stably expressing hERG.
human ether-à-go-go-related gene (hERG) potassium channel, sequence (Q12809 whole entry, looked up): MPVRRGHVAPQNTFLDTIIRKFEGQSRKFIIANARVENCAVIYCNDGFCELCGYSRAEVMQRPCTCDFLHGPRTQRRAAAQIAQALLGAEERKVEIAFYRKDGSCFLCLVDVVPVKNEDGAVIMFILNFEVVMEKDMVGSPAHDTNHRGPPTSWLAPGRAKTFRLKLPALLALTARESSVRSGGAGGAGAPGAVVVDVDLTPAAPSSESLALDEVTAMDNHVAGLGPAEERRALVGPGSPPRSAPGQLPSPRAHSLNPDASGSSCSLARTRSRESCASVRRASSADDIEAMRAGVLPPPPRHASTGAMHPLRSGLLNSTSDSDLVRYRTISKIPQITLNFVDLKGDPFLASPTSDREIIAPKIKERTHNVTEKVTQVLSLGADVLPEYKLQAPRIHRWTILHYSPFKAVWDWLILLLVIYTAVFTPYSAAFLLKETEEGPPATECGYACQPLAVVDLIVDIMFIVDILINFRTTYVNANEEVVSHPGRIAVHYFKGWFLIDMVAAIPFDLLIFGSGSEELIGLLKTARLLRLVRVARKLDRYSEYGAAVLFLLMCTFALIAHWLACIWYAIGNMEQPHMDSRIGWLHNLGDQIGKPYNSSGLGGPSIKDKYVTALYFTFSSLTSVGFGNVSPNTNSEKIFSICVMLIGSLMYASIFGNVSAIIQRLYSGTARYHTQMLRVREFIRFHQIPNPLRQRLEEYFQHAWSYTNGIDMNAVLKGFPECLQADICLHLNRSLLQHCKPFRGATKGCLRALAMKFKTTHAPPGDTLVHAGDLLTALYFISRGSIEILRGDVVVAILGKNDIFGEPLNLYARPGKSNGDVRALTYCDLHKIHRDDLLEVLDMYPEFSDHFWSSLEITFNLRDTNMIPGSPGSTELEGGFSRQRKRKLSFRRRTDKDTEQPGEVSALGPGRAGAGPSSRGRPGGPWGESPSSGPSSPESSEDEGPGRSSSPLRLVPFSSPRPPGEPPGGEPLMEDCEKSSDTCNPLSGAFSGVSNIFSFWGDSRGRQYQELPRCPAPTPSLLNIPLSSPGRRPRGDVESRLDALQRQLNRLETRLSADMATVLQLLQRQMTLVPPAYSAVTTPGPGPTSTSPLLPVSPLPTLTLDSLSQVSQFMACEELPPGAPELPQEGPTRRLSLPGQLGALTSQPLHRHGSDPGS
On to `CC(C)N1CC(C(=O)Nc2ccccc2)CC1=O` (stereo not drawn), for which the “hERG current change (%, negative = inhibition) at 1uM” value is on record as 15.7%.

For the molecule `COC(=O)CN1C(=O)COc2ccc(S(=O)(=O)N3CCOCC3)cc21`, the “hERG current change (%, negative = inhibition) at 1uM” value is given as 14.5%.

Regarding `CCN(CC)CCNC(=O)c1ccc(NC(=O)c2ccc(F)cc2F)cc1.Cl`, the “hERG current change (%, negative = inhibition) at 1uM” value is given as -10.8%.

Regarding `COc1ccc(Oc2c(-c3ccc(O)cc3O)n[nH]c2C)cc1`, the “hERG current change (%, negative = inhibition) at 1uM” value was found to be 11.1%.

`COc1ccc(COC(=O)c2ccc(Br)c(S(=O)(=O)N3CCOCC3)c2)cc1F`: the “hERG current change (%, negative = inhibition) at 1uM” value was found to be 15.9%.

Take `COC(=O)c1sc(N2CCN(c3ccc(Cl)cc3)CC2)nc1N`: the “hERG current change (%, negative = inhibition) at 1uM” value came out at 12.6%.

For `CN(Cc1nccs1)C(=O)C1CCC(=O)N(CCc2cccc(F)c2)C1` (stereo not drawn), the “hERG current change (%, negative = inhibition) at 1uM” value came out at 12.5%.

As for `Cc1ccccc1OCCC(=O)OCC(=O)Nc1ccc(N2CCOCC2)cc1`, the “hERG current change (%, negative = inhibition) at 1uM” value was -9.5%.

For `O=C1CNC(=O)/C(=C\c2ccccc2)N1`, the “hERG current change (%, negative = inhibition) at 1uM” value is 10.7%.

In the case of `O=C(O)c1ccc(S(=O)(=O)N2CCC(Cc3ccccc3)CC2)cc1`, the “hERG current change (%, negative = inhibition) at 1uM” value stood at 18.6%.

`C=C(C)COc1ccc(-c2n[nH]c(C)c2-c2ccc(Br)cc2)c(O)c1`: the “hERG current change (%, negative = inhibition) at 1uM” value turned out to be 1.05%.

`COC(=O)C(=Cc1ccc(-c2ccsc2C(=O)OC)o1)C(=O)OC`: the “hERG current change (%, negative = inhibition) at 1uM” value is on record as 13.9%.

Regarding `CCN1CCN(Cc2c(O)ccc3c(C)cc(=O)oc23)CC1`, the “hERG current change (%, negative = inhibition) at 1uM” value is 27.3%.

As for `Cc1c(Cc2ccccc2)c(NCCCO)n2c(nc3ccccc32)c1C#N`, the “hERG current change (%, negative = inhibition) at 1uM” value is 3.12%.

For `CN(Cc1ccc(OC(F)F)cc1)C(=O)c1ccc2nccnc2c1`, the “hERG current change (%, negative = inhibition) at 1uM” value is -12.1%.

For the molecule `COc1c(OC(C)=O)ccc(/C=C/c2ccc3ccccc3n2)c1[N+](=O)[O-]`, the “hERG current change (%, negative = inhibition) at 1uM” value is on record as -4.88%.

In the case of `CC(OC(=O)c1ccccc1Br)C(=O)Nc1nc(-c2cccc([N+](=O)[O-])c2)cs1` (stereo not drawn), the “hERG current change (%, negative = inhibition) at 1uM” value worked out at 0.149%.

Regarding `CCN(CC)S(=O)(=O)c1ccc(-c2nnc(SC)o2)cc1`, the “hERG current change (%, negative = inhibition) at 1uM” value is listed as 4.8%.

With `Cc1c(C(=O)N/N=C/c2ccccc2)[nH]c2ccc(Cl)cc12`, the “hERG current change (%, negative = inhibition) at 1uM” value was found to be 18.2%.

As for `CCCC(=O)NCCc1nc2ccccc2n1CCC`, the “hERG current change (%, negative = inhibition) at 1uM” value came out at 10.7%.

On to `O=C(CCN1CCOCC1)NNC(=S)NC(=O)c1ccc(Br)cc1`, for which the “hERG current change (%, negative = inhibition) at 1uM” value came to 32.1%.

As to `O=C(Nc1ccc(S(=O)(=O)N2CCCC2)cc1)c1ccc(CN2CCc3ccccc3C2)cc1`, the “hERG current change (%, negative = inhibition) at 1uM” value was found to be 8.1%.

As to `O=C(Nc1cccc(C(=O)Nc2ccc(Br)cc2)c1)c1ccccc1`, the “hERG current change (%, negative = inhibition) at 1uM” value is 11.1%.

For the molecule `COc1ccc(N2CCN(S(=O)(=O)c3cc4c(cc3C)N(C(C)=O)CCO4)CC2)cc1`, the “hERG current change (%, negative = inhibition) at 1uM” value is 16.9%.

Regarding `O=C(O)c1cccc(NC(=S)NC(=O)c2ccc3ccccc3c2)c1`, the “hERG current change (%, negative = inhibition) at 1uM” value turned out to be 10.4%.

As for `COc1ccccc1/C=C/C=N/NC(=O)Cc1cccs1`, the “hERG current change (%, negative = inhibition) at 1uM” value was -3.24%.

For `Cc1ccc(C(=O)N2CCCCC2)cc1S(=O)(=O)N1CCOCC1`, the “hERG current change (%, negative = inhibition) at 1uM” value came out at 18.1%.

In the case of `COc1ccc(C(=O)Nc2ccc(S(=O)(=O)N3CCCC3)cc2)cc1`, the “hERG current change (%, negative = inhibition) at 1uM” value was found to be 5.44%.

Consider `Cc1ccc(Cn2nnc3c(=O)n(CC(=O)OCc4ccccc4)cnc32)cc1`, for which the “hERG current change (%, negative = inhibition) at 1uM” value is recorded as 3.03%.

Consider `CCc1ccccc1NC(=O)c1nnn(CC(=O)Nc2ccccc2C)c1N`, for which the “hERG current change (%, negative = inhibition) at 1uM” value is 6.71%.

As to `CCC(NC(=O)c1ccc(C#CC2(O)CCCCC2)cc1)C(=O)O` (stereo not drawn), the “hERG current change (%, negative = inhibition) at 1uM” value came out at 16.3%.

On to `CCOC(=O)c1[nH]c(C)c(C(=O)N2CCN(c3ccc(OC)cc3)CC2)c1C`, for which the “hERG current change (%, negative = inhibition) at 1uM” value is 2.74%.

For the molecule `CN(C)S(=O)(=O)c1cccc(NC(=S)N/N=C/c2cccc(O)c2)c1`, the “hERG current change (%, negative = inhibition) at 1uM” value came out at 1.58%.

On to `Nn1c(COc2ccccc2)nc2ccccc2c1=O`, for which the “hERG current change (%, negative = inhibition) at 1uM” value is 2.39%.

Consider `O=C(OCc1c(F)cccc1Cl)c1cccc(S(=O)(=O)N2CCOCC2)c1`, for which the “hERG current change (%, negative = inhibition) at 1uM” value was -8.43%.

`O=C(COC(=O)CNC(=O)C1CCCCC1)Nc1ccc2ccccc2c1`: the “hERG current change (%, negative = inhibition) at 1uM” value is -7.85%.

Turning to `COc1ccccc1/C=N/NC(=O)c1ccc(-c2ccccc2)cc1`, the “hERG current change (%, negative = inhibition) at 1uM” value worked out at 5.04%.

Regarding `O=C(c1ccccc1)[C@H]1CC=CC[C@H]1C(=O)O`, the “hERG current change (%, negative = inhibition) at 1uM” value is recorded as -0.136%.

In the case of `Cc1ccc(C(=O)C2C(=O)c3ccccc3C2=O)cc1`, the “hERG current change (%, negative = inhibition) at 1uM” value is -0.431%.

Regarding `CCOC(=O)[C@H]1[C@H]2COc3ccc(C)cc3[C@@H]2N2C(=O)c3ccccc3NC(=O)[C@@]12C`, the “hERG current change (%, negative = inhibition) at 1uM” value was found to be 7.96%.

As for `COc1ccccc1-n1nc(C(=O)O)c2ccccc2c1=O`, the “hERG current change (%, negative = inhibition) at 1uM” value worked out at 3.3%.

For `N#CCSc1nc2scc(-c3cccs3)c2c(=O)n1CCc1ccccc1`, the “hERG current change (%, negative = inhibition) at 1uM” value amounted to 14.5%.

In the case of `CCOc1ccc2nc(NCCCNS(=O)(=O)c3ccc(F)cc3)c(C#N)cc2c1`, the “hERG current change (%, negative = inhibition) at 1uM” value is 2.62%.

With `CCNC(=O)NC(=O)CN(C)c1ccccc1`, the “hERG current change (%, negative = inhibition) at 1uM” value amounted to 4.36%.

Take `CC(c1nnc(SCC(=O)N2CC(=O)Nc3ccccc32)n1Cc1ccccc1)N(C)C` (stereo not drawn): the “hERG current change (%, negative = inhibition) at 1uM” value was 2.46%.
